{
  "source": "PubChem BioAssay AID540317",
  "about": "(National Center for Advancing Translational Sciences (NCATS), 2011)",
  "note": "Values joined by “and” are separate entries in the source; they are usually repeats but may differ in a detail not shown here. Equal entries are not always repeated. About 2,200 (0.56%) of roughly 390,000 compounds were called active. The inconclusive results got no clear call from the source; some entries with a clear call stand among them for comparison. Calls come from the whole dose curve; as a rule, active = well fitted inhibition curve with a large enough effect; inconclusive = small, poorly fitted or top-dose-only effect; inactive = no such curve, though single readings can be large or run the other way. Where the call is inconclusive, the potency comes from a doubtful curve fit. Potency is the fitted concentration of half-maximal effect; tags give direction and shape of the fitted curve.",
  "data": [
    {"molecular_target": "Chromobox protein homolog 1 (Homo sapiens) (UniProt P83916)", "sequence (P83916 whole entry, looked up)": "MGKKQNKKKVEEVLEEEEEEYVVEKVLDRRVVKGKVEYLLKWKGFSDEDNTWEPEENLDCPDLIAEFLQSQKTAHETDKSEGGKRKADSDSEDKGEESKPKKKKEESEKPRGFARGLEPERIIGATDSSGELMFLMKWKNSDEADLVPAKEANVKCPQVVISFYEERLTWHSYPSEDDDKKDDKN", "assay": "HTS for Inhibitors of HP1-beta Chromodomain Interactions with Methylated Histone Tails; note: nearly all actives have a fitted effect of over 70% in size", "conditions": "AlphaScreen HP1-beta / biotin-H3K9me3 peptide binding; series mostly up to 114 µM", "how_it_was_run": "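Compound inhibition of the preformed complex between 50 nM HP1-beta and 50 nM biotinylated H3K9me3 peptide was read by AlphaScreen. Buffer was PBS pH 7.4 with 0.01% Tween-20. Incubations ran 30 min at room temperature, with 10 ug/mL donor/acceptor beads.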", "values": [
      {"smiles": "COCCNC(=O)c1ccc(C)c(S(=O)(=O)Nc2ccc(C)cc2)c1", "Potency": "inactive"},
      {"smiles": "COc1cc2oc(=O)c(CC(=O)N3CCCCC3)c(C)c2cc1OC", "Potency": "inactive"},
      {"smiles": "CCCC(=O)N(c1ccc2oc(C)c(C(C)=O)c2c1)S(=O)(=O)c1ccc(C)cc1", "Potency": "inconclusive: 89.1 µM [inhibitor, single point]"},
      {"smiles": "COc1cccc(OC)c1C(=O)N1CCN(Cc2ccncc2)CC1", "Potency": "inconclusive: 7.08 µM [inhibitor, full curve, poor fit]"},
      {"smiles": "CC(=O)NNC(=S)NC(=O)c1cccc([N+](=O)[O-])c1", "Potency": "inconclusive: 3.16 µM [inhibitor, partial curve, poor fit]"},
      {"smiles": "COc1cccc(N2C(=O)CSC23C(=O)N(Cc2ccccc2)c2ccccc23)c1", "note": "(stereo not given)", "Potency": "inactive"},
      {"smiles": "COc1cc(/C=C2\\CCC/C(=C\\c3ccc(O)c(OC)c3)C2=O)ccc1O", "Potency": "inconclusive: 44.7 µM [inhibitor, partial curve]"},
      {"smiles": "CCCCS(=O)(=O)N1C2=NC(C(=O)OC)=C(C(=O)OC)[C@@H]3N(C)c4ccc(OC)cc4[C@]23C[C@H]1C(=O)OC", "Potency": "inconclusive: 25.1 µM [inhibitor, partial curve, poor fit]"},
      {"smiles": "CCN(C(=O)CN1C(=O)NC2(CCc3ccccc32)C1=O)C1CCCCC1", "note": "(stereo not given)", "Potency": "inactive"},
      {"smiles": "Cc1cc(C)c2c(c1)-c1c(ssc1=S)C(C)(C)N2C(=O)CN1C(=O)c2ccccc2C1=O", "Potency": "inconclusive: 12.6 µM [inhibitor, full curve]"},
      {"smiles": "O=c1c2ccccc2sn1-c1ccc(S(=O)(=O)N2CCCCC2)cc1", "Potency": "inconclusive: 1.58 µM [inhibitor, full curve, poor fit] and inconclusive: 3.16 µM [inhibitor, full curve, poor fit]"},
      {"smiles": "Cc1cc[n+](-c2[nH]c(=O)sc2/C=N/NC([S-])=Nc2ccccc2)cc1", "Potency": "inconclusive: 15.8 µM [inhibitor, partial curve, poor fit]"},
      {"smiles": "CC[C@H](C)/C=C(C)/C=C/C(=O)Cc1cc(O)c(C)c(O)c1C=O", "Potency": "inactive"},
      {"smiles": "O=C(Nc1cccnc1)c1ccccc1O", "Potency": "inactive"},
      {"smiles": "Cc1[nH]c2c(C)cccc2c1CCNS(=O)(=O)c1cccc([N+](=O)[O-])c1", "Potency": "inconclusive: 17.8 µM [inhibitor, full curve, poor fit]"},
      {"smiles": "CC(C)(C)n1cnc2cc(NCc3ccccc3Cl)ccc21", "Potency": "inconclusive: 39.8 µM [inhibitor, partial curve, poor fit]"},
      {"smiles": "O=C1COc2ccc(S(=O)(=O)Nc3cccc(Cl)c3)cc2N1", "Potency": "inactive"},
      {"smiles": "COc1cccc2[nH]c3c(N4CCCCC4)ncnc3c12", "Potency": "inconclusive: 35.5 µM [inhibitor, single point]"},
      {"smiles": "CC(=O)Nc1ccc(SCCN2CCN(C)CCC2=O)cc1", "Potency": "inactive"},
      {"smiles": "Cc1ccc(NC2=C(C(=O)c3ccccc3)N(C)S(=O)(=O)c3ccccc32)cc1", "Potency": "inconclusive: 7.94 µM [inhibitor, full curve]"},
      {"smiles": "CCOC(=O)c1ccc(NC(=O)C(CC)Sc2nc3ncccc3o2)cc1", "note": "(stereo not given)", "Potency": "inconclusive: 89.1 µM [inhibitor, single point]"},
      {"smiles": "Cc1ccc(NC(=O)CSc2ccccc2NC(=O)c2cccc(Cl)c2)cc1Cl", "Potency": "inconclusive: 44.7 µM [inhibitor, single point]"},
      {"smiles": "Cc1c(CN(C)CCc2ccccc2)c(=O)n(-c2ccccc2)n1C", "Potency": "inconclusive: 70.8 µM [inhibitor, single point]"},
      {"smiles": "Cc1cc(S(=O)(=O)NCc2ccco2)c(C)cc1Cl", "Potency": "inactive"},
      {"smiles": "CCN(C(=O)COC(=O)c1cc([N+](=O)[O-])ccc1N1CCOCC1)c1ccccc1", "Potency": "inactive"},
      {"smiles": "C/C=C\\C=C/C(=O)Nc1cccc(C2=NOC3(C2)C[C@@H](C(N)=O)N(C(=O)CCCCC)C3)c1", "note": "(stereo not given in full)", "Potency": "inconclusive: 50.1 µM [inhibitor, partial curve, poor fit]"},
      {"smiles": "CCN1CCN(CC(=O)Nc2ccc(Cl)c(S(=O)(=O)N(C)C)c2)CC1", "Potency": "inconclusive: 31.6 µM [inhibitor, partial curve, poor fit]"},
      {"smiles": "COc1cccc(C(=O)/C=C/c2ccc(N3CCCCC3)c([N+](=O)[O-])c2)c1", "Potency": "inconclusive: 5.62 µM [inhibitor, full curve, poor fit]"},
      {"smiles": "c1ccc(-c2ccc(CN3CCN(c4ncccn4)CC3)cc2)cc1", "Potency": "inconclusive: 44.7 µM [inhibitor, partial curve]"},
      {"smiles": "O=C(O)CN1C(=O)/C(=C\\c2cccc(OCc3ccccc3)c2)SC1=S", "Potency": "inconclusive: 25.1 µM [inhibitor, full curve]"},
      {"smiles": "CCN(CC)S(=O)(=O)c1ccc(N/N=C/c2ccc(OC)c(OC)c2OC)nc1", "Potency": "inconclusive: 20 µM [inhibitor, single point]"},
      {"smiles": "CC1CCN(CCOc2ccc(OCc3ccccc3)cc2)CC1", "Potency": "inconclusive: 17.8 µM [inhibitor, full curve, poor fit]"},
      {"smiles": "COc1ccc(C2SCC(=O)N2c2nc3ccccc3s2)cc1", "note": "(stereo not given)", "Potency": "inactive"},
      {"smiles": "Cc1ccc2nc(N(CCCN(C)C)C(=O)c3sc4ccccc4c3Cl)sc2c1", "Potency": "inconclusive: 17.8 µM [inhibitor, full curve]"},
      {"smiles": "CC(C)(C)CC(=O)Nc1nnc2n1CCS2", "Potency": "inactive"},
      {"smiles": "CCN1CC2=C(OC(N)=C(C#N)C2c2ccccc2)/C(=C\\c2ccccc2)C1", "note": "(stereo not given)", "Potency": "inactive"},
      {"smiles": "CCOC(=O)C1=C(C)N(c2ccc(C)cc2)C(=O)/C1=C\\c1cccs1", "Potency": "inconclusive: 12.6 µM [inhibitor, full curve]"},
      {"smiles": "COc1cc(-n2c(=O)c3ccccc3n(CC(=O)c3ccc(F)cc3)c2=O)cc(OC)c1OC", "Potency": "inconclusive: 31.6 µM [inhibitor, single point]"},
      {"smiles": "CC(CCC(C)C(C)(C)C)[C@@H]1CC[C@H]2C3C[C@H](OS(O)(=S)=S)[C@H]4C[C@H](OS(O)(=S)=S)[C@@H](OS(O)(=S)=S)C[C@]4(C)[C@H]3CC[C@]12C", "note": "(stereo not given in full) (tested in a mixture with another compound)", "Potency": "inconclusive: 50.1 µM [inhibitor, partial curve, poor fit]"},
      {"smiles": "O=C(/C=C/c1ccc(Cl)cc1)N1CCN(c2ccc([N+](=O)[O-])c(N3CCOCC3)c2)CC1", "Potency": "inconclusive: 44.7 µM [inhibitor, partial curve]"}
    ]}
  ]
}
